The results in this text go back to paper PMC6919601, “Identification of Plasmodium dipeptidyl aminopeptidase allosteric inhibitors by high throughput screening” (PLoS ONE, 2019).

Screen size: about 110,000 compounds; about 230 (0.21%) showed an effect of 50% or more. Some of the results follow.
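Note: 30 min substrate incubation versus DMSO and 10 µM JCP410 controls.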

Sequence of DPAP1 (Q8IIJ9 whole entry, looked up): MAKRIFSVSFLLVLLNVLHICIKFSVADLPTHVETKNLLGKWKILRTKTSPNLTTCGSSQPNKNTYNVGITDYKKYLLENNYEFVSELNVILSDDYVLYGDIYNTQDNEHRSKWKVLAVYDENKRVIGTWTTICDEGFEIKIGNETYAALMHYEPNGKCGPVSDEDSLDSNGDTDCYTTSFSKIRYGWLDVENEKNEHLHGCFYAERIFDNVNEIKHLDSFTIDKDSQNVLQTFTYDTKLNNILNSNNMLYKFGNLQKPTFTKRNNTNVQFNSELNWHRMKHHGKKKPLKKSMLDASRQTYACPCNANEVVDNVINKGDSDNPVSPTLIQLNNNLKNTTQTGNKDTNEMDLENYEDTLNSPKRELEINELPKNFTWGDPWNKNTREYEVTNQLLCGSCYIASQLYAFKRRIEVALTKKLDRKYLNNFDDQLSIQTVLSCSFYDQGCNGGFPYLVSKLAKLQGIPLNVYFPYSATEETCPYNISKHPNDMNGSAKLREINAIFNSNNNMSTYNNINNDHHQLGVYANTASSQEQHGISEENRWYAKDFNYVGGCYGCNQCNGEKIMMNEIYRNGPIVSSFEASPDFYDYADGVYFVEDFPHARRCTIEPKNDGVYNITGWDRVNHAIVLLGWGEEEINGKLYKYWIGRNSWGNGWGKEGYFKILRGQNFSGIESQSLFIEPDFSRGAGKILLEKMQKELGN

The assay addresses DPAP1 (Plasmodium falciparum, UniProt Q8IIJ9). As to the kind of experiment: primary screen, percent inhibition; read by cleavage of a fluorogenic dipeptide substrate; higher = more effect of the substance. Also noted: species or system P. falciparum D10 trophozoite lysates; single well.
As for `Cc1cc(C)c(-c2[nH]nc3c2C(c2ccc(Br)cc2)N(CCO)C3=O)c(O)c1` (stereo not shown), the “% Inhibition @ 10 uM” value was -1.71%.

`CCC(=O)Nc1sc2c(c1C#N)CCC(CC)C2` (stereo not shown): the “% Inhibition @ 10 uM” value is -5.14%.

For `C/C(=N\CCCN1CCOCC1)c1c(C)nn(-c2ccc(Br)cc2Br)c1O`, the “% Inhibition @ 10 uM” value is listed as -4.21%.

As to `CCN(CC)CCCNC(=O)CNC(=S)N(CCCN1CCOCC1)Cc1cccs1`, the “% Inhibition @ 10 uM” value came to 4.47%.

As to `CC(=O)c1cccc(NC(=O)CSCc2cccc(Br)c2)c1`, the “% Inhibition @ 10 uM” value was -3.55%.

For the compound `CC1=CC2=NC(=O)/C(=C\c3cc(C)n(-c4ccc(C)c(Cl)c4)c3C)C(=N)N2O1`, the “% Inhibition @ 10 uM” value is recorded as -3.23%.

As to `O=C1NC(=S)N/C1=C/c1cc(Br)cc(Br)c1O`, the “% Inhibition @ 10 uM” value came to 27.4%.

As for `Cc1ccc2ncc(S(=O)(=O)c3ccc(C(C)C)cc3)c(O)c2c1`, the “% Inhibition @ 10 uM” value is reported as -3.45%.

Regarding `CCOC(=O)c1c(C)oc2nc(C)nc(N(C)Cc3ccco3)c12`, the “% Inhibition @ 10 uM” value is recorded as 4.44%.

As for `O=C(O)c1c2c(nc3ccccc13)CCC2`, the “% Inhibition @ 10 uM” value is reported as -1.8%.

`C#CC(C)(C)NCCC(=O)/C(C)=C/C`: the “% Inhibition @ 10 uM” value is recorded as -7.52%.

As to `COc1cc(C2C(C#N)=C(N)Oc3[nH]nc(C(C)(C)C)c32)cc(OC)c1OC` (stereo not shown), the “% Inhibition @ 10 uM” value is on record as 2.92%.

On to `COc1ccccc1C(=O)NCc1nnc(SCC(=O)Nc2nccs2)n1-c1cccc(C)c1`, for which the “% Inhibition @ 10 uM” value is -4.97%.

Regarding `O=C(CCCc1c[nH]c2ccccc12)NCCN1CCOCC1`, the “% Inhibition @ 10 uM” value turned out to be 3.47%.

In the case of `Cc1cccnc1NC(=O)Nc1cn(CC(C)C)c(=O)c2ccccc12`, the “% Inhibition @ 10 uM” value is on record as -0.171%.

For `O=C(NCCc1ccccc1)c1cc(C2CC2)on1`, the “% Inhibition @ 10 uM” value is 3.55%.

Consider `O=c1[nH]c(=S)ccn1-c1nc(-c2ccccc2)sc1-c1ccccc1`, for which the “% Inhibition @ 10 uM” value is listed as 1.33%.

In the case of `CN1c2ccccc2N(C)C1c1c(O)ccc2ccccc12`, the “% Inhibition @ 10 uM” value was 5.63%.

Regarding `CN1CCC(N(C)Cc2ccccc2[N+](=O)[O-])CC1`, the “% Inhibition @ 10 uM” value is on record as 1.55%.

For `CN1CCN(CCCn2nnc3c(=O)oc4ccccc4c32)CC1`, the “% Inhibition @ 10 uM” value is given as -6.06%.

For `COc1cccc(NC(=O)[C@@H]2C3C=CC(C3)[C@@H]2C(=O)O)c1` (stereo partly shown), the “% Inhibition @ 10 uM” value is -2.63%.

Turning to `Cc1ccc2c(c1)-c1c(cnn1CC(=O)N1CCN(c3ncccn3)CC1)CO2`, the “% Inhibition @ 10 uM” value is on record as -6.07%.

Take `O=C1CC(c2ccc(Cl)cc2)NC(NC(=O)c2cccnc2)=N1` (stereo not shown): the “% Inhibition @ 10 uM” value is listed as -10.3%.

On to `O=C1NC(=O)C(=CNc2ccccc2Oc2ccccc2)C(=O)N1`, for which the “% Inhibition @ 10 uM” value was -4.91%.

As for `O=C(O)c1cc(Cl)c(Cl)cc1C(=O)Nc1ccccc1O`, the “% Inhibition @ 10 uM” value is recorded as -3.78%.

Regarding `Cc1ccc(NC(=O)CN2C(=O)S/C(=C\c3ccccn3)C2=O)cc1C`, the “% Inhibition @ 10 uM” value is -9.93%.

`COc1ccc(NC(=O)/C=C/c2ccco2)cn1`: the “% Inhibition @ 10 uM” value was -1.46%.

`O=C(Nc1ccc(Oc2ccccc2)cc1)c1ccncc1`: the “% Inhibition @ 10 uM” value is recorded as -11.7%.

On to `COc1cccc(CNCc2cc(F)ccc2F)c1OC`, for which the “% Inhibition @ 10 uM” value was -2.73%.

On to `CN1CCN(C(=O)c2nn(C)c3c2CS(=O)(=O)c2ccccc2-3)CC1`, for which the “% Inhibition @ 10 uM” value is listed as -2.58%.

Regarding `Nn1cnnc1SCc1ccc(F)cc1`, the “% Inhibition @ 10 uM” value is -6.6%.

As to `O=C(N/C(=C\c1ccco1)C(=O)N1CCCC(CO)C1)c1ccccc1` (stereo not shown), the “% Inhibition @ 10 uM” value is recorded as -0.996%.

As for `COc1cccc(-c2cn3c(n2)sc2cc(C(=O)NCc4cccc(OC)c4OC)ccc23)c1`, the “% Inhibition @ 10 uM” value amounted to 4.59%.

In the case of `COCc1cc(C)nc(SCC(=O)O)c1C#N`, the “% Inhibition @ 10 uM” value is -0.999%.

Take `CCCCOC(=O)Nc1nc2ccccc2s1`: the “% Inhibition @ 10 uM” value stood at 4.01%.

Regarding `Clc1ccc(C2CC(c3ccco3)n3ncnc3N2)c(Cl)c1` (stereo not shown), the “% Inhibition @ 10 uM” value was determined as 0.189%.

As to `CCC1(C)COC2(OC1)C(=O)Nc1ccccc12` (stereo not shown), the “% Inhibition @ 10 uM” value is listed as -2.88%.

With `CNC(=O)C1CC(=O)N(C2CCCCCC2)C1` (stereo not shown), the “% Inhibition @ 10 uM” value was -1.79%.

Regarding `O=S(=O)(c1ccc(Cl)c(Cl)c1)N1CCn2c(nc3ccccc32)C1`, the “% Inhibition @ 10 uM” value turned out to be 3.53%.

On to `O=C(NCCCc1ccccc1)Nc1cccc(Cl)c1`, for which the “% Inhibition @ 10 uM” value is reported as -5.34%.

Turning to `CC1CCCCC1NC(=O)C1CCN(S(=O)(=O)N2CCOCC2)CC1` (stereo not shown), the “% Inhibition @ 10 uM” value came out at 6.74%.

Regarding `Cc1nc2nc(-c3ccc(Cl)cc3Cl)nn2c(C)c1CCC(=O)NCc1ccc2c(c1)OCO2`, the “% Inhibition @ 10 uM” value is reported as -0.465%.

On to `Cc1cccc(OCCCCCn2ccnc2)c1`, for which the “% Inhibition @ 10 uM” value stood at 2.76%.

Regarding `COc1cccc(CN(C(=O)COc2ccc(Cl)cc2Cl)C2CCS(=O)(=O)C2)c1` (stereo not shown), the “% Inhibition @ 10 uM” value is reported as -4.95%.

As to `Cc1cn(CC(=O)c2ccccc2)c2ccccc12`, the “% Inhibition @ 10 uM” value came out at 0.255%.

Turning to `Cc1cccc2c1Sc1ccccc1CC2N1CCNCC1` (stereo not shown), the “% Inhibition @ 10 uM” value is on record as -2.18%.

For the compound `CC(C)(CNC(=O)c1ccccc1Cl)CNC(=O)c1ccccc1Cl`, the “% Inhibition @ 10 uM” value is listed as -1.61%.

Regarding `COC(=O)c1ccc(/C=c2\sc3nc(-c4cccs4)nn3c2=O)cc1`, the “% Inhibition @ 10 uM” value is recorded as 3.54%.

With `CCn1c2ccccc2c2cc(CNCCNC(=O)c3nonc3N)ccc21`, the “% Inhibition @ 10 uM” value is given as -5.33%.

`COc1ccc(CC(=O)Nc2cc(Cl)ccc2Cl)cc1OC`: the “% Inhibition @ 10 uM” value is on record as 0.583%.

In the case of `Cc1cc(CN2CCN(Cc3ccccc3)CC2)cs1`, the “% Inhibition @ 10 uM” value is on record as 3.36%.

In the case of `N#C/C(=C\c1ccc(-c2ccc(Cl)cc2Cl)o1)c1nc2ccccc2[nH]1`, the “% Inhibition @ 10 uM” value was 6.08%.

Turning to `CCc1ncc(C(O)(c2ccccc2)c2ccccc2)n1C`, the “% Inhibition @ 10 uM” value is on record as -3.32%.

As to `Cc1ccc(-c2c(O)c(=O)/c2=N\C(C)c2ccccc2)cc1` (stereo not shown), the “% Inhibition @ 10 uM” value was -2.28%.

For the compound `COc1ccc(C(=O)OC(C)CN(C)C)cc1` (stereo not shown), the “% Inhibition @ 10 uM” value worked out at 2.32%.

For the compound `COC(=O)c1c(NC(=O)CSc2ncnc3sc4c(c23)CCCC4)sc2c1CCC2`, the “% Inhibition @ 10 uM” value is 1.63%.

`CCC(C)NC(=O)COCc1cc(-c2ccc(F)cc2)on1` (stereo not shown): the “% Inhibition @ 10 uM” value amounted to 3.12%.

As to `C=CCSc1nc(O)c2cnn(-c3ccc(Cl)cc3)c2n1`, the “% Inhibition @ 10 uM” value is recorded as -1.54%.

Turning to `O=C(CCCC(=O)Nc1cccc(C(F)(F)F)c1)Nc1cccc(C(F)(F)F)c1`, the “% Inhibition @ 10 uM” value was -4.96%.

As for `O=C(Nc1cnn(Cc2ccc(F)cc2)c1)c1cnccn1`, the “% Inhibition @ 10 uM” value worked out at 3.94%.

For `COc1ccc(CCCC(=O)NCCc2ccccc2)c(C)c1`, the “% Inhibition @ 10 uM” value was -7.69%.

In the case of `COc1ccc(-c2c(C#N)c(N)nc(OC)c2C#N)c(OC)c1`, the “% Inhibition @ 10 uM” value is given as -1.86%.

As to `CC(C)CC(C(=O)NCC#N)c1nc(-c2cccc([N+](=O)[O-])c2)cs1` (stereo not shown), the “% Inhibition @ 10 uM” value is reported as -4.72%.

Take `C=CCSc1nc(C2CC2)cc(-c2ccccc2)c1C#N`: the “% Inhibition @ 10 uM” value is given as 4.67%.

For `CC12CN3CC(C)(CN(C1)C3C(O)C(O)C(O)CO)C2` (stereo not shown), the “% Inhibition @ 10 uM” value is -3.64%.

Consider `Cc1ccc(C(=O)Nc2ccccn2)cc1`, for which the “% Inhibition @ 10 uM” value is recorded as -1.56%.

In the case of `COc1ccc(Nc2oc(COc3ccc(C)cc3)nc2C#N)cc1`, the “% Inhibition @ 10 uM” value is given as -5.01%.
